Results published in PubChem BioAssay (NCI).
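How tested: cells in 96-well plates exposed to compound for 48 hours at five concentrations. At the GI50, growth is halved.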 Not every entry of the source has a single result; some have several. This is not the full list of results. An entry can have further records. For some of these results: The records of an entry repeat one measurement (runs, samples, wells, individuals or studies). A tag in brackets gives the origin of a value. Letters hold for one entry only.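 TGI denotes the concentration required for complete inhibition of growth.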 For some of these results: Records of one sample usually come from different ranges of test concentrations, which the source does not state; some values may only mark the edge of a range.

How the values were obtained:
Test in all cases: DTP human tumour cell line panel, 48 h
CCRF-CEM leukemia = test system: CCRF-CEM leukemia
K-562 leukemia = test system: K-562 leukemia
SR leukemia = test system: SR leukemia
HL-60(TB) leukemia = test system: HL-60(TB) leukemia

SMILES: CC1CC(C)CC(C)C(O)/C(C#N)=C/C=C/CC(C2CCCC2C(=O)O)OC(=O)CC(O)C(C)C1 (centres undefined)
- TGI (CCRF-CEM leukemia): 174 nM and 2.83 µM

SMILES: Cc1ccc(S(=O)(=O)SC/C=C\CSS(=O)(=O)c2ccc(C)cc2)cc1
- GI50 (K-562 leukemia): 190 nM [sample A, mean of 4 tests] and 20.6 µM [sample B, 1 test]
- TGI (SR leukemia): 3.33 µM [sample A, mean of 3 tests] and 57.7 µM [sample B, 1 test]
- TGI (HL-60(TB) leukemia): 2.49 µM [sample A, mean of 3 tests] and 59.9 µM [sample B, 1 test]
